Measured values published in PMC4336329 (PLoS ONE, 2015).
In all, about 310,000 compounds went through this assay and about 2,200 (0.71%) showed an effect of 50% or more. Effects have a minus sign here. The list shows a part of the results.

The molecules below were run against human ether-à-go-go-related gene (hERG) potassium channel (human, UniProt Q12809) (assay: primary screen, population patch clamp on CHO cells stably expressing hERG).
Chain of human ether-à-go-go-related gene (hERG) potassium channel (Q12809 whole entry, looked up): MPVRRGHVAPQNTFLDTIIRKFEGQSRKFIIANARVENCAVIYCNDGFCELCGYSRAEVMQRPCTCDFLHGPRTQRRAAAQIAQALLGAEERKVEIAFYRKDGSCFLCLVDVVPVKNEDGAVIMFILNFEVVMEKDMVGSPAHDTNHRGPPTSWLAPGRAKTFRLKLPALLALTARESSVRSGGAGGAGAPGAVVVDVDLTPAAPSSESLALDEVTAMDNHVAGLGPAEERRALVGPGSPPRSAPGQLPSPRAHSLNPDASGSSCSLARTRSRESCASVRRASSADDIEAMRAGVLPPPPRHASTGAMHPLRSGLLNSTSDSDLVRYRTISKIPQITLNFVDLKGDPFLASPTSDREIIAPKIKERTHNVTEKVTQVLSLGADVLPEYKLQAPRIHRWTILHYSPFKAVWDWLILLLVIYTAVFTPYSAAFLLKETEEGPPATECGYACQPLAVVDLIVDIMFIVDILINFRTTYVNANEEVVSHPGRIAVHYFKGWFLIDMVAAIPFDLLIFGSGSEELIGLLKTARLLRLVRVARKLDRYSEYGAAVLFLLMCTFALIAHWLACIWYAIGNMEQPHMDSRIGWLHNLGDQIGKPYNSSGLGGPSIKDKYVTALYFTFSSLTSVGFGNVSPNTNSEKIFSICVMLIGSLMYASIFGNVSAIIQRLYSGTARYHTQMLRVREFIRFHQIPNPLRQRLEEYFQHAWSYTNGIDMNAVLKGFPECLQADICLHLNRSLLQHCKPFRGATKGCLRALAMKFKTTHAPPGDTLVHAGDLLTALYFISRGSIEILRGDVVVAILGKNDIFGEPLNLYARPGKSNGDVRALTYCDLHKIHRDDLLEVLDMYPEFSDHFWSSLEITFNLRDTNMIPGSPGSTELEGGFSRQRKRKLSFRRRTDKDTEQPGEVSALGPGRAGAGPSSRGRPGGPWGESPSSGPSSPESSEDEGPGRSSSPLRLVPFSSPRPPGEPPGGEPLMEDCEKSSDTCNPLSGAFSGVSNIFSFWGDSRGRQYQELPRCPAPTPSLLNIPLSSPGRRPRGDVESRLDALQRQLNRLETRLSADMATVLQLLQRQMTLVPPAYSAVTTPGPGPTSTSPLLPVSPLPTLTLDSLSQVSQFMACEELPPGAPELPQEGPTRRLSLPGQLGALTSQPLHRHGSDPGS

Compared with `Cc1cc2n(n1)C(c1ccc3c(c1)OCO3)Nc1c(C)cccc1-2` (stereo not drawn), `COc1cc(O)c(C(CC(=O)N2CCCCC2)c2ccc3c(c2)OCO3)c(OC)c1` (stereo not drawn) is higher in “hERG current change (%, negative = inhibition) at 1uM” value: 8.12% for the first, 15.2% for the second.

Going from `O=C(CC1SCCNC1=O)Nc1cc(Cl)cc(Cl)c1` (stereo not drawn) to `CCC1C(=O)N=C(SCC(=O)Nc2ccc(C(=O)OC)cc2)NC1=O` (stereo not drawn), the “hERG current change (%, negative = inhibition) at 1uM” value rises from 4.21% to 11.5%.

First: COc1ccc(-n2c(SCCNCCO)nc3sc4c(c3c2=O)CCCC4)cc1
Second: COCCn1c(SCC(=O)N2CCCc3ccccc32)nc2c(c1=O)SC(C)C2 (stereo not drawn)
The “hERG current change (%, negative = inhibition) at 1uM” value of the first is lower: -2.98% for the first, 5.79% for the second.

First: c1ccc(Cn2ncc3c(NCc4ccco4)ncnc32)cc1
Second: CC1(C)Cc2c(sc3ncnc(NNC(=S)NCc4ccccc4)c23)CO1
The “hERG current change (%, negative = inhibition) at 1uM” value of the first is lower: 0.573% for the first, 11.3% for the second.

Going from `O=C(OCCOc1cccc(Cl)c1)c1cc(S(=O)(=O)N2CCOCC2)ccc1F` to `O=C(COC(=O)C1CCN(S(=O)(=O)c2ccc(Cl)c(C(F)(F)F)c2)CC1)NCc1ccco1`, the “hERG current change (%, negative = inhibition) at 1uM” value rises from 8.59% to 12.3%.

First: O=C(Nc1ccccc1)OCCCCCOC(=O)Nc1ccccc1
Second: O=C(Nc1ccccc1)c1csc(-c2ccccc2)n1
The “hERG current change (%, negative = inhibition) at 1uM” value of the first is higher: 13.6% for the first, 9.97% for the second.

First: Cc1cccc(NC(=O)N2CCC(c3nc4ccccc4o3)CC2)c1
Second: COc1ccc(NC(C)=O)cc1NC(=O)C1CCN(C(=O)Nc2ccccc2)CC1
The “hERG current change (%, negative = inhibition) at 1uM” value of the first is lower: 4.61% for the first, 10.7% for the second.

First: Cc1cc(=O)oc2c(C)c(OCC(=O)N3CCN(C(=O)C4COc5ccccc5O4)CC3)ccc12 (stereo not drawn)
Second: CS(=O)(=O)N(CCc1ccccc1)CC(=O)N1CCN(Cc2ccc3c(c2)OCO3)CC1
The “hERG current change (%, negative = inhibition) at 1uM” value of the first is lower: -19.9% for the first, -9.05% for the second.

Compared with `CCCCN(C(=O)CSc1nnc(-c2ccco2)o1)c1c(N)n(Cc2ccccc2)c(=O)[nH]c1=O`, `C=C(C)Cn1c(=O)c2c(nc3n2CC(C)CN3Cc2ccccc2)n(C)c1=O` (stereo not drawn) is lower in “hERG current change (%, negative = inhibition) at 1uM” value: 16.2% for the first, -5.92% for the second.

Going from `O=c1cc(CN2CCN(c3ccc(F)cc3)CC2)nc2sccn12` to `O=C(Nc1ccc2nc(N3CCOCC3)sc2c1)c1ccc(F)cc1`, the “hERG current change (%, negative = inhibition) at 1uM” value rises from -4.42% to 4.59%.

Compared with `COC(=O)C1=C(C)NC(C)=C([N+](=O)[O-])C1c1ccccc1C(F)(F)F` (stereo not drawn), `COc1cccc(NC(=O)CN(c2cccc(C(F)(F)F)c2)S(C)(=O)=O)c1` is lower in “hERG current change (%, negative = inhibition) at 1uM” value: 7.92% for the first, 6.28% for the second.

First: CSc1nc2c(c(=O)[nH]1)C(c1ccc(Br)cc1)CC(=O)N2 (stereo not drawn)
Second: COc1ccc(C2CC(=O)c3cnc(NC(=O)c4ccccc4)nc3C2)cc1OC (stereo not drawn)
The “hERG current change (%, negative = inhibition) at 1uM” value of the first is higher: 6.75% for the first, 0.969% for the second.

Going from `CN1C(=O)/C(=C/c2ccc(OC(=O)c3ccco3)cc2)SC1=S` to `Cc1cccc(C)c1OCC(=O)Nc1cccc(NC(=O)c2ccco2)c1`, the “hERG current change (%, negative = inhibition) at 1uM” value rises from -1.75% to 9.09%.

Compared with `COC(=O)C1=C(c2cccc(C#N)c2)C[C@@H]2CC[C@H]1N2C(=O)NCc1cccc2ccccc12`, `COc1ccc(NC(=O)C2CCCN2C(=O)NCc2ccccc2)cc1` (stereo not drawn) is higher in “hERG current change (%, negative = inhibition) at 1uM” value: 4.58% for the first, 10.8% for the second.

Going from `CC(C)(C)NC(=O)C1CC(=O)OC1(C)C` (stereo not drawn) to `COc1ccc(CCNC(=O)C2CC(=O)N(c3ccc(C(C)(C)C)cc3)C2)cc1OC` (stereo not drawn), the “hERG current change (%, negative = inhibition) at 1uM” value rises from 3.56% to 7.77%.

Compared with `CS(=O)(=O)N1CCc2cc(C(=O)N3CCN(c4ccccc4F)CC3)ccc21`, `Cc1ccc(N2CCN(C(=O)c3ccccc3Br)CC2)c(C)c1` is higher in “hERG current change (%, negative = inhibition) at 1uM” value: -2.95% for the first, 5.05% for the second.

First: COc1ccc(C(O)C(CN2CCOCC2)c2ccccc2)cc1F.Cl (stereo not drawn)
Second: O=C(N/N=C/c1cccc2ccccc12)c1ccc(CN2CCOCC2)cc1
The “hERG current change (%, negative = inhibition) at 1uM” value of the first is lower: 6.72% for the first, 9.04% for the second.

First: c1ccc(-c2csc(-n3cccn3)n2)cc1
Second: CC(=O)Nc1ccc(S(=O)(=O)N2CCN=C2c2ccccc2)cc1
The “hERG current change (%, negative = inhibition) at 1uM” value of the first is higher: 17% for the first, 14.6% for the second.

Going from `COc1ccc(NC(=O)CCNS(=O)(=O)c2ccc3c(c2)c(=O)n(C)c(=O)n3C)c(OC)c1` to `COc1cccc(CNC(=O)CCS(=O)(=O)c2ccc3c(c2)NC(=O)CS3)c1`, the “hERG current change (%, negative = inhibition) at 1uM” value rises from 11.2% to 12.2%.

First: COc1ccc(-c2ncncc2-c2ccc(Cl)cc2)c(O)c1
Second: COc1ccc(-c2cc(C(=O)O)sc2C)cc1
The “hERG current change (%, negative = inhibition) at 1uM” value of the first is higher: 10.2% for the first, 3.33% for the second.

Compared with `CC(C)=NN/C(N)=N/C(=S)Nc1ccc(C)cc1`, `N/C(=N\[N+](=O)[O-])N/N=C/c1ccc(O)cc1` is lower in “hERG current change (%, negative = inhibition) at 1uM” value: 11.2% for the first, 4.26% for the second.

Going from `CCOc1ccc(C(Nc2ccc(C)cc2)P2(=O)OCCC(C)O2)cc1` (stereo not drawn) to `Cc1ccc(NC2=Nc3ccccc3CC2)cc1`, the “hERG current change (%, negative = inhibition) at 1uM” value rises from -3.18% to 8.06%.

Compared with `CCC(=O)N1c2ccc(S(=O)(=O)CCC(=O)Nc3nccs3)cc2CC1C` (stereo not drawn), `COCCNC(=O)C(c1ccc(O)cc1)N(C(=O)CCC(=O)Nc1nccs1)c1cccc(C)c1` (stereo not drawn) is higher in “hERG current change (%, negative = inhibition) at 1uM” value: 5.42% for the first, 19.8% for the second.

Compared with `FC(F)Oc1ccccc1NC(=S)NCCc1ccccc1`, `Cc1c(NC(=O)C(c2ccccc2)c2ccccc2)cccc1C(=O)O` is higher in “hERG current change (%, negative = inhibition) at 1uM” value: 3.4% for the first, 16.2% for the second.

First: COC(=O)c1[nH]c2cccc(Cl)c2c1NC(=O)CN1CCN(CCO)CC1
Second: CC(=O)N1CCN(c2ccccc2NC(=O)c2cc(Br)ccc2Cl)CC1
The “hERG current change (%, negative = inhibition) at 1uM” value of the first is higher: -2.22% for the first, -27% for the second.

Compared with `Cc1cccc(NC(=O)C(=O)NNC(=O)c2ccc(C(C)(C)C)cc2)c1`, `Cc1ccc(NS(=O)(=O)c2ccc(C(=O)N3CCN(c4ccccn4)CC3)cc2)cc1` is higher in “hERG current change (%, negative = inhibition) at 1uM” value: 18.3% for the first, 19.6% for the second.

First: COc1cc(CO)cc(Br)c1OCc1cccnc1
Second: Cc1c(Cl)c([N+](=O)[O-])nn1CC(=O)NCc1cccnc1
The “hERG current change (%, negative = inhibition) at 1uM” value of the first is lower: 13.1% for the first, 14.7% for the second.

Compared with `Cc1ccc(S(=O)(=O)N2CCCCC2)cc1NC(=O)C1CC(=O)N(Cc2ccccc2)C1` (stereo not drawn), `O=C(NCCc1ccco1)C(=O)NCCC1CCCCN1S(=O)(=O)c1ccccc1` (stereo not drawn) is higher in “hERG current change (%, negative = inhibition) at 1uM” value: 1.43% for the first, 3.49% for the second.

First: O=C(c1ccc(S(=O)(=O)Cc2cc(F)ccc2F)c([N+](=O)[O-])c1)N1CCCCC1
Second: O=C(CS(=O)(=O)c1c[nH]c2ccccc12)N1CCCCC1
The “hERG current change (%, negative = inhibition) at 1uM” value of the first is lower: -4.4% for the first, 17% for the second.

First: O=C(c1ccc(-c2cccc(C(F)(F)F)c2)o1)N1CCCCCCC1
Second: FC(F)(F)c1cc(CCN2C(=S)NC[C@@H]2c2ccccc2)cc(C(F)(F)F)c1
The “hERG current change (%, negative = inhibition) at 1uM” value of the first is lower: 5.25% for the first, 12.6% for the second.

First: Cc1cccc(-c2noc(-c3c(C)noc3C)n2)c1
Second: Cc1cccc(CSc2nn3c(=O)c(C)nnc3s2)c1
The “hERG current change (%, negative = inhibition) at 1uM” value of the first is lower: 6.8% for the first, 7.26% for the second.

Going from `Cc1ccc(S(=O)(=O)NCCN2CCOCC2)c(C)c1.Cl` to `Cc1ccc(S(=O)(=O)NC(=O)Nn2c(C)nnc2C)cc1`, the “hERG current change (%, negative = inhibition) at 1uM” value rises from 10.8% to 24.2%.

Going from `CCOC(=O)CCNC(=O)CNC(=O)OCc1ccccc1` to `COc1ccc(CC(=O)NCC(=O)N/N=C/c2sccc2C)cc1`, the “hERG current change (%, negative = inhibition) at 1uM” value falls from 10.9% to 5.04%.

First: CC(=O)n1cc([C@H]2C=C(C(=O)N3CCN(Cc4ccc5c(c4)OCO5)CC3)O[C@@H](OCc3ccc(CO)cc3)C2)c2ccccc21
Second: O=C(O)C(=O)O.O=C(c1cccc2ccccc12)N1CCN(Cc2ccccc2F)CC1
The “hERG current change (%, negative = inhibition) at 1uM” value of the first is higher: 9.34% for the first, 8.72% for the second.

First: Cc1nnc2ccc(-c3cccc(NS(C)(=O)=O)c3)nn12
Second: Cc1[nH]n(-c2ccc(Cl)cc2)c(=O)c1/C=N/c1nnc(-c2ccccc2)s1
The “hERG current change (%, negative = inhibition) at 1uM” value of the first is lower: 2.86% for the first, 21.6% for the second.

First: O=C1/C(=C/c2cccc([N+](=O)[O-])c2)CCc2ccccc21
Second: O=C(C1=C(O)C(=O)N(c2ccccc2)C1c1ccc([N+](=O)[O-])cc1)c1cccs1 (stereo not drawn)
The “hERG current change (%, negative = inhibition) at 1uM” value of the first is lower: -1.76% for the first, 12.8% for the second.

Going from `COc1ccc(OCC(=O)NNC(=O)C2CCCO2)cc1` (stereo not drawn) to `COc1ccc(CCCC(=O)N/N=C\c2cccs2)cc1`, the “hERG current change (%, negative = inhibition) at 1uM” value rises from 12.4% to 25.1%.

Compared with `O=C(Nc1ccccc1)c1cc(-n2cnnc2)ccc1Cl`, `CN(C)c1ccc(C=Nc2ccccc2C(N)=O)cc1` is lower in “hERG current change (%, negative = inhibition) at 1uM” value: 8.64% for the first, 5.28% for the second.

First: O=C(O)C1CCCCC1C(=O)Nc1ccc2c(c1)CCC2 (stereo not drawn)
Second: O=C(NC(C(=O)N1CCCC1C(=O)O)=C1CCCCC1)c1ccccc1 (stereo not drawn)
The “hERG current change (%, negative = inhibition) at 1uM” value of the first is lower: -3.73% for the first, -0.878% for the second.

Going from `CC(=O)N1c2ccc(S(=O)(=O)N3CCC(C(=O)N4CCCC(C)C4)CC3)cc2CC1C` (stereo not drawn) to `O=C(N=C1SC2CS(=O)(=O)CC2N1c1ccccc1)C1CCCCC1` (stereo not drawn), the “hERG current change (%, negative = inhibition) at 1uM” value rises from 3.98% to 16%.

Compared with `C=CCn1cnc2c(nnn2Cc2ccc(F)cc2)c1=O`, `CCCn1nnnc1NCc1ccc(SC)cc1` is lower in “hERG current change (%, negative = inhibition) at 1uM” value: 11.5% for the first, 10.6% for the second.

First: Cc1ccc(C(=O)N[C@@H](C)CN2C3=NC[C@H](C(C)C)N3C[C@H]2Cc2ccc(O)cc2)cc1Br
Second: Cc1ccc(C(=O)COC(=O)C(C)N2C(=O)C3C4C=CC(C4)C3C2=O)cc1C (stereo not drawn)
The “hERG current change (%, negative = inhibition) at 1uM” value of the first is lower: -34.3% for the first, 15.5% for the second.

Going from `O=C1CSC(c2ccccc2)N1c1ccc(F)cc1F` (stereo not drawn) to `CC(=O)c1c(N2CCN(C)CC2)[nH]c(-c2ccccc2)nc1=S`, the “hERG current change (%, negative = inhibition) at 1uM” value falls from 9.55% to 6.6%.

With `CC1(C)CC(=O)C=C(Nc2ccc(S(N)(=O)=O)cc2)C1` the “hERG current change (%, negative = inhibition) at 1uM” value was 11.4%.
